In all, about 300,000 compounds went through this assay and about 22,000 (7.3%) were called active. This list was built around the results that the source calls inconclusive (neither active nor inactive); the mix of calls is not that of the screen. Rule as the data show it: active = activity score below about -60%; inconclusive = mostly about -28% to -61%; inactive = positive scores.
Experiment: Activators via SNCA 5'UTR binding, MLPCN (AID 1814)
Conditions: alpha-synuclein 5'UTR reporter, activators screen; active compounds read low; tested at 7.5 µM
For `CC(=O)c1ccc(-n2nnnc2SCC(=O)Nc2sc(C)c(C)c2C#N)cc1`, the activity score was inconclusive: -53.1%. For `CNC(=O)c1csc(-c2ccc(Cl)cc2)n1`, the activity score was inconclusive: -56.3%. With `O=C(CNC(=O)c1ccc(Br)o1)Nc1cccc(-c2cnc3ccccc3n2)c1` the activity score was inconclusive: -59.3%. For `CCOc1ccc2[nH]c3nc(SCC(=O)NC4CC4)nnc3c2c1`, the activity score was inconclusive: -52.5%. In the case of `Cc1ccc(-c2nc(-c3cccnc3)sc2CC(=O)Nc2ccc(C)c(Cl)c2)cc1`, the activity score is reported as inactive: 54.1%. In the case of `COC(=O)C(CC(=O)c1ccc(Cl)cc1)c1ccc(C)cc1` (configuration not stated), the activity score is reported as inconclusive: -56.9%. For `CC(=O)c1ccc(NC(=O)c2cnsn2)cc1`, the activity score was inconclusive: -61.3%. In the case of `Cc1ccnc(NC(=O)CCC(=O)c2cccs2)c1`, the activity score is reported as inactive: 84%. With `Cc1ccc(NCC(=O)N/N=C/c2ccc(OC(=O)c3ccco3)cc2)cc1` the activity score was inconclusive: -58.2%. For `Cn1cc(CCNC(=O)c2ccc3nc(Cc4ccccc4F)oc3c2)cn1`, the activity score was active: -116%. With `O=C(CSc1ccccc1)NCc1ccc(F)cc1` the activity score was inconclusive: -60.2%. For `CCc1ccc(C(=O)NNc2ccc(F)cc2F)cc1`, the activity score was inconclusive: -39.8%. With `CC(=O)Nc1ccc(S(=O)(=O)N2CCN(C(=O)c3ncoc3-c3ccc(F)cc3)CC2)cc1` the activity score was inconclusive: -22.9%. With `Cc1ccc2ccc3ccc(C)nc3c2n1` the activity score was inactive: 72%. With `Cc1ccccc1OCC(=O)Nc1ccc(N2CCN(C)CC2)c(Cl)c1` the activity score was active: -140%. In the case of `O=C(NC(=S)Nc1ccc(F)cc1)c1ccc2c(c1)OCCO2`, the activity score is reported as inconclusive: -42.5%. With `Clc1ccc(-c2nnc(C3CCCCC3)o2)cc1` the activity score was inconclusive: -59.5%. With `CN1c2ccc(C=O)c3c(C=O)ccc(c23)N(C)C1(C)C` the activity score was inactive: 67%. With `CC1(C)CC(=O)C(N=Nc2ccc3ncsc3c2)=C(O)C1` the activity score was inconclusive: -57.6%. For `CCOc1ccccc1-c1nc(-c2ccc(NC(=O)Cc3ccc(OC)cc3)cc2)no1`, the activity score was inconclusive: -61.2%. With `CC(C)(C)c1ccc(C(=O)NCCOc2ccccc2F)cc1` the activity score was inactive: 77.5%. For `CC(C)CCN1CCC(n2nccc2NC(=O)c2ccc3c(c2)OCO3)CC1`, the activity score was inconclusive: -36.7%. For `C[C@H]1COC2=C1C(=O)C(=O)c1c2ccc2c1CCCC2(C)C`, the activity score was inactive: 102%. In the case of `Cn1c(C(=O)N2COCC2(C)C)cc2c(=O)n3ccccc3nc21`, the activity score is reported as active: -80.9%. With `Cc1nnc(NC(=O)c2cccc(Br)c2)s1` the activity score was active: -95.9%. For `COc1cc2ccccc2cc1C(=O)N/N=C/c1cccnc1`, the activity score was inconclusive: -48.5%. In the case of `O=C(Nc1ccccc1)O[C@@H]1C[C@H]2CCC(=O)N3CC[C@@H](C1)[C@@H]23`, the activity score is reported as active: -136%. For `S=C(Nc1ccccc1Cl)N1CCC(c2ccccc2)C1` (configuration not stated), the activity score was active: -120%. In the case of `COc1ccccc1C(=O)N/N=C/c1cnc2ccccc2n1`, the activity score is reported as active: -102%. For `COCC(C)NC(=O)CCS(=O)(=O)c1nc(-c2ccc(OC)cc2)cc(C(F)(F)F)n1` (configuration not stated), the activity score was inconclusive: -59.7%. With `O=C(Nc1c(Cl)cccc1Cl)c1cc(-c2ccco2)on1` the activity score was inconclusive: -45.1%. In the case of `CC(=O)Cc1nsc(NC(=O)c2csc3c2CCCC3)n1`, the activity score is reported as inconclusive: -49.5%. With `Cc1ccc(NC(=O)Nc2ccc3c(c2)nc(C)n3C)cc1` the activity score was inconclusive: -44.4%. With `CC(=O)Oc1cc(OC(C)=O)c2c(=O)c(-c3ccc4c(c3)OCCCO4)c(C)oc2c1` the activity score was active: -88.2%. For `COc1ccc(-c2cc(C(=O)NC3=NCCS3)c3ccccc3n2)cc1OC`, the activity score was inconclusive: -40.7%. In the case of `Cc1c(C)c2ccc(OCC(=O)Nc3ccccn3)c(C)c2oc1=O`, the activity score is reported as inactive: 110%. In the case of `CC1(C)COC(c2coc3ccccc3c2=O)OC1`, the activity score is reported as active: -96.7%. In the case of `COc1ccc2nc(/C=N/NC(=O)[C@@H]3CCCN3C(=O)OC(C)(C)C)ccc2c1`, the activity score is reported as inconclusive: -59.6%. With `O=C(Oc1ccc(OC(=O)N2CCCCC2)cc1)c1ccccc1` the activity score was inconclusive: -58.4%. With `CCC(=O)Nc1ccc(C(=O)Cn2ncc(Cl)c(Cl)c2=O)cc1` the activity score was inconclusive: -52.7%. With `CCOC(=O)Cc1c(C)nc2cc(-c3ccc(C(C)(C)C)cc3)[nH]n2c1=O` the activity score was inconclusive: -42.4%. For `CC(Sc1ccccn1)C(=O)Nc1ccccc1` (configuration not stated), the activity score was active: -208%. For `CCCc1ccc(O)c(N=Cc2cc(Br)cc(OCC)c2O)c1`, the activity score was inconclusive: -55.2%. For `Clc1ccc(/C=N\Nc2ccccc2)cc1`, the activity score was active: -66.6%. With `COc1ccccc1-c1nnc(NC(=O)C(C)C)s1` the activity score was inconclusive: -61.3%. In the case of `Cc1ccc2cccc(OCCCOc3ccccc3F)c2n1`, the activity score is reported as active: -73.6%. For `O=C(CCl)N(C1CCCC1)C1CCS(=O)(=O)C1` (configuration not stated), the activity score was inconclusive: -49.3%. In the case of `O=C(Nc1nc2c(F)cc(F)cc2s1)c1ccccn1`, the activity score is reported as inactive: 73.1%. For `Cc1cc(C)nc(NC(=O)/C=C/c2ccc(Cl)cc2)n1`, the activity score was inconclusive: -51.1%. With `C/C(=N\NS(=O)(=O)c1ccc(Cl)c([N+](=O)[O-])c1)c1cc2ccccc2o1` the activity score was inconclusive: -28.1%. In the case of `CCN(Cc1ccccc1)S(=O)(=O)c1ccc(C(=O)Nc2nnc(-c3ccccc3OC)o2)cc1`, the activity score is reported as inactive: 66.6%. In the case of `CCOC(=O)C1=NN(C(=O)c2cccc(Br)c2)C(O)(C(C)(C)C)C1` (configuration not stated), the activity score is reported as inactive: 105%. In the case of `C=CCn1c(Sc2ccccc2)nc2c1c(=O)[nH]c(=O)n2C`, the activity score is reported as inactive: 59.6%. For `CCN(CC)C(=O)C(=O)Nc1ccc(Oc2ccccc2)cc1`, the activity score was inconclusive: -43.5%. In the case of `CC(C)COc1ccc(/C=C2/Sc3ccccc3C2=O)cc1`, the activity score is reported as inconclusive: -59%. In the case of `Cc1ccc(CCNC(=O)C2CCC(=O)N(Cc3ccccc3F)C2)o1` (configuration not stated), the activity score is reported as inconclusive: -51.8%. With `COc1ccc(/C=N/NC(=O)c2cccnc2)cc1COc1ccc([N+](=O)[O-])cc1` the activity score was active: -74.9%. With `CCOC(=O)c1c(-c2ccccc2)nc2cc(C)ccn12` the activity score was active: -104%. With `Cc1ccc(NC(=O)C2OCCc3ccccc32)cc1Cl` (configuration not stated) the activity score was inconclusive: -60.2%. With `Brc1ccc(-c2csc(-c3c[nH]c4ccccc34)n2)cc1` the activity score was active: -183%. In the case of `COc1ccc(C(=O)/C=C/c2ccc(OC)cc2OC)c(O)c1`, the activity score is reported as active: -283%. With `O=C(Nc1ccc(F)cc1)Nc1cc(OCC(F)(F)F)cc(OCC(F)(F)F)c1` the activity score was inactive: 86%. For `COc1ccc(-n2cnc3cc(NCc4ccco4)ccc32)cc1`, the activity score was active: -126%. For `CN(C)CCCN(C(=O)c1ccc(S(=O)(=O)N2CCCCCC2)cc1)c1nc2ccc(Br)cc2s1`, the activity score was inactive: 75.3%. In the case of `C=C(C)CSc1nnc(-c2ccc(C)cc2)n1N`, the activity score is reported as active: -99.6%. With `CCOC(=O)C1=C(C)NC(=O)NC1c1ccsc1` (configuration not stated) the activity score was inconclusive: -21.3%. In the case of `Cc1ccc(C(=O)N/N=c2\sc3ccccc3n2C)cc1`, the activity score is reported as active: -61.8%. In the case of `CC(C)NC(=S)N/N=C/c1sc(N2CCCCC2)nc1-c1cccs1`, the activity score is reported as active: -68.5%. With `Nc1cccc2c1C(=O)N(C(=O)/C=C/c1cccc(Br)c1)C2=O` the activity score was active: -160%. With `Cc1cccc(NC(=O)CSc2nccn2C)c1` the activity score was inconclusive: -61.1%. With `O=C(O)C(=O)/C(=C\c1ccsc1)c1ccc2ccccc2n1` the activity score was inconclusive: -36.2%. With `NC(=O)c1ccc(NC(=O)COC(=O)c2c3c(nc4ccccc24)/C(=C\c2ccc4c(c2)OCO4)CCC3)cc1` the activity score was inconclusive: -53.6%. With `O=[N+]([O-])c1nn(-c2ccc3c(c2)OCCO3)n(O)c1=Nc1ccccc1` the activity score was inactive: 79.9%. For `CC(=O)c1c(C)[nH]c(C(=O)Nc2ccccn2)c1C`, the activity score was active: -80.4%. In the case of `Nc1ccc(-c2ncc(-c3ccccc3)o2)cc1`, the activity score is reported as inactive: 86.4%. In the case of `CCc1sc(C(=O)Nc2ccsc2C(=O)OC)cc1Br`, the activity score is reported as inconclusive: -56.6%. With `Cc1ccc(NC(=O)C(=O)Nc2ccccn2)cc1` the activity score was inactive: 71%. In the case of `O=C(CSc1nnc(-c2c[nH]c3ccccc23)o1)c1ccccc1`, the activity score is reported as inconclusive: -38.4%. With `CCCCOC(=O)Nc1ccc(C(N)=O)cc1` the activity score was active: -94.1%. For `O=C(NC1CCCCCC1)c1ccco1`, the activity score was inconclusive: -28.8%. In the case of `Cc1ccc(-c2nnc(SCC(=O)Nc3ccccc3F)o2)cc1`, the activity score is reported as inactive: 92.1%. With `CCOc1ccc(S(=O)(=O)N2c3ccccc3CC2C)cc1` (configuration not stated) the activity score was inactive: 92.6%. In the case of `CN1C2CCC1/C(=C\c1ccccc1)C(=O)/C2=C\c1ccccc1`, the activity score is reported as active: -185%. With `CC(=O)c1ccc(OCCn2cnc3ccccc32)cc1` the activity score was inconclusive: -36%. For `O=C1CCOc2cc(OCc3ccccc3)ccc21`, the activity score was inconclusive: -54.5%. For `Clc1cccc(OCCCN2CCCC2)c1Cl`, the activity score was inconclusive: -41.7%. For `CCCCOC(=O)c1ccc(NC(=O)c2ccoc2C)cc1`, the activity score was inconclusive: -60.2%. For `N#Cc1c(-c2ccc3c(c2)OCO3)csc1N`, the activity score was inconclusive: -58.7%. For `COc1ccc(Cc2nn3c(-c4ccccc4Br)nnc3s2)cc1`, the activity score was inactive: 37.1%. In the case of `COc1ccc(NC(=O)Cc2coc3cc(C)ccc23)cc1S(=O)(=O)N1CCOCC1`, the activity score is reported as inconclusive: -49.1%. With `Cc1ccc(C(=O)NCCCc2ccccc2)c(Cl)c1` the activity score was active: -100%. With `CCC(CC)c1nnc(NC(=O)c2ccc3c(c2)OCO3)s1` the activity score was active: -169%. In the case of `Cc1ccccc1Cn1nnc(C(=O)Nc2ccc3c(c2)OCCO3)c1N`, the activity score is reported as active: -109%. For `Cn1c(CCNC(=O)c2cccs2)nnc1SCC(=O)Nc1nc(-c2ccccc2)cs1`, the activity score was active: -72.7%. In the case of `CCOC(=O)C1(Cc2ccccc2C)CCCN(C(=O)c2ccccn2)C1` (configuration not stated), the activity score is reported as inconclusive: -48.4%. In the case of `O=C(Nc1cccc(Cl)c1)O/N=C\c1ccncc1`, the activity score is reported as inconclusive: -56.5%. In the case of `COc1ccc(/C=C/c2cc(-c3ccc(C)cc3)o[n+]2C)cc1`, the activity score is reported as inactive: 89.2%.

— PubChem BioAssay AID1814 (Broad Institute, 2009)
